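Growth conditions: 96-well plates. Treatment: test compound, 48 hours, 5 concentrations. Analysis: linear interpolation between bracketing concentrations; unreached endpoints set to highest concentration. GI50: concentration for 50% inhibition of growth.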 Certain results were filed several times, with different values. The list is limited to them. There may be further records. For some assays here: Records of one sample usually come from different ranges of test concentrations, not given here; some values may only mark the edge of a range. For some assays here: Values that stand side by side are repeats in other runs, samples, wells, individuals or studies. Records carry a tag for their origin. A, B and so on number the origins entry by entry.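 TGI: total growth inhibition.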
What was measured:
Test in all cases: growth of human tumour cells (NCI), 48 h
HOP-62 NSCLC = tested on: HOP-62 NSCLC
COLO 205 colon = tested on: COLO 205 colon
RXF-631 renal = tested on: RXF-631 renal
NCI-H460 lung = tested on: NCI-H460 lung
A498 renal = tested on: A498 renal
UACC-62 melanoma = tested on: UACC-62 melanoma
SK-OV-3 ovarian = tested on: SK-OV-3 ovarian
DMS 114 small cell lung = tested on: DMS 114 small cell lung
SN12C renal = tested on: SN12C renal
DLD-1 colon = tested on: DLD-1 colon
SR leukemia = tested on: SR leukemia
OVCAR-4 ovarian = tested on: OVCAR-4 ovarian
M19-MEL melanoma = tested on: M19-MEL melanoma
OVCAR-3 ovarian = tested on: OVCAR-3 ovarian
SW-620 colon = tested on: SW-620 colon
IGROV1 ovarian = tested on: IGROV1 ovarian
TK-10 renal = tested on: TK-10 renal
NCI-H226 lung = tested on: NCI-H226 lung
RXF 393 renal = tested on: RXF 393 renal
NCI/ADR-RES ovarian = tested on: NCI/ADR-RES ovarian
DU-145 prostate = tested on: DU-145 prostate
HCC-2998 colon = tested on: HCC-2998 colon
HT29 colon = tested on: HT29 colon
SK-MEL-5 melanoma = tested on: SK-MEL-5 melanoma
BT-549 breast = tested on: BT-549 breast
KM12 colon = tested on: KM12 colon
RPMI-8226 leukemia = tested on: RPMI-8226 leukemia
LOX IMVI melanoma = tested on: LOX IMVI melanoma
MCF7 breast = tested on: MCF7 breast
T-47D breast = tested on: T-47D breast
MOLT-4 leukemia = tested on: MOLT-4 leukemia
SF-295 CNS = tested on: SF-295 CNS
HCT-15 colon = tested on: HCT-15 colon
SF-268 CNS = tested on: SF-268 CNS
HCT-116 colon = tested on: HCT-116 colon
MDA-N = tested on: MDA-N
HL-60(TB) leukemia = tested on: HL-60(TB) leukemia
OVCAR-8 ovarian = tested on: OVCAR-8 ovarian
MDA-MB-435 = tested on: MDA-MB-435
NCI-H23 lung = tested on: NCI-H23 lung
U251 CNS = tested on: U251 CNS
UO-31 renal = tested on: UO-31 renal
HOP-92 NSCLC = tested on: HOP-92 NSCLC
EKVX NSCLC = tested on: EKVX NSCLC
HS 578T breast = tested on: HS 578T breast
NCI-H522 lung = tested on: NCI-H522 lung
K-562 leukemia = tested on: K-562 leukemia
M14 melanoma = tested on: M14 melanoma
SNB-75 CNS = tested on: SNB-75 CNS
786-0 renal = tested on: 786-0 renal
DMS 273 small cell lung = tested on: DMS 273 small cell lung
LXFL 529 NSCLC = tested on: LXFL 529 NSCLC
ACHN renal = tested on: ACHN renal
A549 NSCLC = tested on: A549 NSCLC
SNB-19 CNS = tested on: SNB-19 CNS

COc1cccc([C@H]2C/C(=N\NC(=O)C(=O)N[C@@H](C)c3ccccc3)c3ccccc3N2)c1
TGI (HOP-62 NSCLC): 9.1 µM and > 100 µM

COc1cccc2c1C(=O)c1c(O)c3c(c(O)c1C2=O)CC(O)(C(O)CO)CC3OC1CC(N2CCOCC2)C(O)C(C)O1 (stereo not given)
TGI (COLO 205 colon): 5.09 nM and 108 nM | TGI (RXF-631 renal): 5.82 nM and 320 nM | TGI (NCI-H460 lung): 3.4 µM and 122 nM | TGI (A498 renal): 2.83 nM and 28.8 nM | TGI (UACC-62 melanoma): < 1 nM and 19.1 nM | TGI (SK-OV-3 ovarian): 265 nM and 3.76 µM | TGI (DMS 114 small cell lung): < 1 nM and 38 nM | TGI (SN12C renal): 153 nM and 1.76 µM | TGI (DLD-1 colon): 65.1 nM and 10.4 µM | TGI (SR leukemia): 17.8 nM and 219 nM | TGI (OVCAR-4 ovarian): 21.1 nM and 1.45 µM | TGI (M19-MEL melanoma): 1.1 nM and 36.7 nM | TGI (OVCAR-3 ovarian): 11.9 nM and 1.71 µM | TGI (SW-620 colon): 135 nM and 1.47 µM | TGI (IGROV1 ovarian): 14.5 nM and 1.13 µM | TGI (TK-10 renal): 294 nM and 12 µM | TGI (NCI-H226 lung): < 1 nM and 30.8 nM | TGI (RXF 393 renal): < 1 nM and 36.8 nM

COC1/C=C/C(C)C(C(C)C(OC)C(C)CCC(=O)C(C)C(C/C=C/N(C)C=O)OC)OC(=O)/C=C/C=C(\C)CC(OC)CC2=CC(=O)O[C@H](C2)C(C)C(OC)CC(OC)/C=C/C(C)C(OC)C1 (stereo not given in full)
TGI (UACC-62 melanoma): 198 nM and 18 nM | TGI (NCI/ADR-RES ovarian): 437 nM and 40.4 nM | TGI (DU-145 prostate): 547 nM and > 50 µM | TGI (HCC-2998 colon): 103 nM and 11.4 µM | TGI (HT29 colon): 326 nM and > 50 µM | TGI (SR leukemia): 1.23 µM and > 50 µM | TGI (SK-MEL-5 melanoma): 275 nM and 12.1 nM | TGI (OVCAR-4 ovarian): 51.3 nM and 15 µM | TGI (BT-549 breast): 375 nM and 20.1 nM | TGI (KM12 colon): 1.45 µM and > 50 µM

C#CC1(O)C(COP(=O)(O)OC(COCCCCCCCCCCCCCCCCCC)COP(=O)(O)OCC2OC(n3cc(F)c(=O)[nH]c3=O)CC2O)OC(n2ccc(N)nc2=O)C1O (stereo not given)
TGI (RPMI-8226 leukemia): 181 nM [sample A] and 66 µM [sample B] | GI50 (LOX IMVI melanoma): < 29.9 nM [sample A, mean of 2 tests] and 439 nM [sample B, mean of 3 tests] | TGI (MCF7 breast): 6.47 µM [sample A] and > 87.6 µM [sample B] | TGI (SR leukemia): > 100 µM [sample A] and 6.75 µM [sample B] | TGI (SK-MEL-5 melanoma): > 100 µM [sample A] and 7.83 µM [sample B] | GI50 (T-47D breast): 2.22 µM [sample A, mean of 2 tests] and 184 nM [sample B, mean of 3 tests] | TGI (T-47D breast): > 100 µM [sample A, mean of 2 tests] and 6.19 µM [sample B, mean of 3 tests] | GI50 (MOLT-4 leukemia): 382 nM [sample A, mean of 2 tests] and 28.9 nM [sample B, mean of 2 tests] | TGI (SF-295 CNS): 1.96 µM [sample A, mean of 2 tests] and 19.9 µM [sample B, mean of 3 tests]

O=c1cc(-c2ccccc2F)[nH]c2ccc(N3CCCC3)cc12
TGI (COLO 205 colon): 2.36 nM and > 100 µM | TGI (NCI-H460 lung): 8.55 µM and > 100 µM | TGI (HCT-15 colon): 30.1 nM and > 100 µM | TGI (NCI/ADR-RES ovarian): 47.5 nM and > 100 µM | TGI (RPMI-8226 leukemia): 1.3 µM and > 100 µM | TGI (DU-145 prostate): 2.88 nM and > 100 µM | TGI (HT29 colon): 4.99 nM and > 100 µM | TGI (SF-268 CNS): 9.11 µM and > 100 µM | TGI (SK-OV-3 ovarian): 1.82 µM and > 100 µM | GI50 (HCT-116 colon): < 1 nM and 34 nM | TGI (HCT-116 colon): 8.31 µM and > 100 µM | TGI (SR leukemia): < 1 nM and > 100 µM | TGI (MDA-N): < 1 nM and > 100 µM | TGI (HL-60(TB) leukemia): 104 nM and > 100 µM | TGI (OVCAR-8 ovarian): 464 nM and > 100 µM | TGI (SK-MEL-5 melanoma): 114 nM and > 100 µM | TGI (MDA-MB-435): < 1 nM and > 100 µM | TGI (NCI-H23 lung): 238 nM and 14.6 µM | TGI (U251 CNS): 464 nM and > 100 µM | GI50 (OVCAR-3 ovarian): < 1 nM and 44.8 nM | TGI (OVCAR-3 ovarian): 2.24 nM and > 100 µM | GI50 (BT-549 breast): 1.66 nM and 35.4 µM | TGI (UO-31 renal): 464 nM and 29.4 µM | TGI (IGROV1 ovarian): 139 nM and > 100 µM | GI50 (HOP-92 NSCLC): < 1 nM and > 100 µM | TGI (EKVX NSCLC): 959 nM and > 100 µM | TGI (HS 578T breast): 93.6 nM and > 100 µM | TGI (KM12 colon): 50.7 nM and > 100 µM | TGI (NCI-H522 lung): 2.07 nM and > 100 µM

COc1ccc2c(c1)nnn1c3ncccc3c(N=O)c21
TGI (HT29 colon): 4.72 µM and > 100 µM | GI50 (K-562 leukemia): 109 nM and 1.1 µM | TGI (K-562 leukemia): 808 nM and > 100 µM | TGI (M14 melanoma): 9.58 µM and > 100 µM | TGI (SR leukemia): 28.8 nM and > 100 µM | TGI (HL-60(TB) leukemia): 478 nM and > 100 µM | TGI (SW-620 colon): 1.34 µM and 17.3 µM | TGI (IGROV1 ovarian): 5.77 µM and > 100 µM | TGI (SNB-75 CNS): 9.35 µM and > 100 µM | TGI (MOLT-4 leukemia): 52.5 nM and > 100 µM | TGI (HOP-92 NSCLC): 375 nM and 4.02 µM | TGI (HS 578T breast): 7.95 µM and 80.5 µM | TGI (786-0 renal): 5.81 µM and > 100 µM

CCCCCCCCC/C=C/C=C/C(=O)NCC(=O)NC1C(O)C(O)C(Nc2ncnc3nc[nH]c23)OC1C(O)CO (stereo not given)
TGI (A498 renal): 1.04 µM and 46.9 nM | TGI (HCT-15 colon): 3.48 µM and > 100 µM | TGI (RPMI-8226 leukemia): 49.7 nM and 1.15 µM | TGI (HCC-2998 colon): 3.49 nM and 282 nM | TGI (DLD-1 colon): 2.57 µM and > 100 µM | TGI (SR leukemia): 205 nM and > 100 µM | TGI (DMS 273 small cell lung): 2.5 nM and 129 nM | TGI (HL-60(TB) leukemia): 12.1 nM and > 100 µM | TGI (LXFL 529 NSCLC): 241 nM and > 100 µM | TGI (NCI-H23 lung): 130 nM and 11.8 µM | TGI (ACHN renal): 3.19 µM and > 100 µM | TGI (HOP-62 NSCLC): 30.4 nM and 802 nM | TGI (A549 NSCLC): 3.16 µM and > 100 µM | TGI (HOP-92 NSCLC): 2.24 nM and 321 nM | TGI (SNB-19 CNS): 12.5 nM and 156 nM

Source: PubChem BioAssay (NCI)
